# Measured values reported in PubChem BioAssay AID889 (National Center for Advancing Translational Sciences (NCATS), 2007).
# In all, about 75,000 compounds went through this assay and about 15 (0.02%) were called active. Inconclusive means that the source gave no clear call. Such entries were picked first, then a sample of the others. Calls follow the shape of the dose curve; as a rule, active = well fitted inhibition curve with a large enough effect in the main read-out, with a control signal flat (not every such curve was filed as active); inconclusive = small, poorly fitted or top-dose-only effect, or a change in a side signal; inactive = flat fitted curve, though single readings scatter. A potency beside an inconclusive call is a rough fit, not a confirmed value. “Side channel” marks fits to a control or component signal instead of the main read-out.
# Biological target: Caspase-7 (Homo sapiens) (UniProt P55210)
# Test: qHTS Assay for Allosteric/Competitive Inhibitors of Caspase-7; as to activity change, negative = inhibition: % of control where 0% means no effect
# Details: recombinant caspase-7, Ac-DEVD-AFC fluorescence rate; activity change, negative = inhibition: at 57.5 µM (top of the series) unless noted
# Potency is read from the fitted curve at half-maximal effect; tags tell the direction and shape of the fitted curve or compound fluorescence and quenching.
# Chain of UniProt P55210 (P55210 whole entry, looked up): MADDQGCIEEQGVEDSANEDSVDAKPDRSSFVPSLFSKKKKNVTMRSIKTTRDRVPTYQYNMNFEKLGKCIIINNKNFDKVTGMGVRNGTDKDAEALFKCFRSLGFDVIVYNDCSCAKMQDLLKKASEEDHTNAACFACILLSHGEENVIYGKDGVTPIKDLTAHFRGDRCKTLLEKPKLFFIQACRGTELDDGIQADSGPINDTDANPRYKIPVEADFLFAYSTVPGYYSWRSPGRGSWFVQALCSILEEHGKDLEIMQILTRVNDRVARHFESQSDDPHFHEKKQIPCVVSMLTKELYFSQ
SMILES,Potency,"activity change, negative = inhibition"
Cc1cc(-c2ccco2)n2c(nc3ccccc32)c1C#N,"inconclusive: 25.1 µM [inhibitor, single point]",
COc1ccc(C2C3=C(CC(C)(C)CC3=O)N(CCN3CCOCC3)C3=C2C(=O)CC(C)(C)C3)cc1,"inconclusive: 15.8 µM [fluorescent, side channel, partial curve]",
Cn1c(=O)c(-c2cc(F)cc(F)c2)nc2cnc(Oc3ccccc3)nc21,"inconclusive: 31.6 µM [fluorescent, side channel, single point]",
Cc1cc(C)c2c(n1)nn1c(N3CCOCC3)cc(C)nc21,"inconclusive: 5.01 µM [fluorescent, full curve]",
CNC(=O)c1cc2c(=O)n3cc(C)ccc3nc2n(C(C)C)c1=N,"inconclusive: 1.58 µM [fluorescent, side channel, full curve]",
COCCNC(=O)c1c(N)n(-c2cccc(C)c2)c2nc3ccccc3nc12,"inconclusive: 10 µM [fluorescent, side channel, partial curve]",
CN(C)c1ncc2nc(-c3ccc(F)cc3)c(=O)n(CCc3ccccc3)c2n1,"inconclusive: 2.51 µM [fluorescent, side channel, full curve]",
CCOC(=O)C1=C(C)NC2=C(C(=O)CC(C)(C)C2)C1c1ccc2c(c1)CCCN2C (stereo not given),"inconclusive: 20 µM [inhibitor, partial curve]",
COc1ccc(N2CCN(c3cc(C)c4ccc(O)cc4n3)CC2)cc1,"inconclusive: 25.1 µM [fluorescent, side channel, partial curve]",
CC1CCN(c2oc(-c3cccc4ccccc34)nc2C#N)CC1,"inconclusive: 3.16 µM [inhibitor, partial curve]",
O=c1[nH]c(SCc2ccc(F)cc2)nc2c1cnn2-c1ccc(F)cc1,inactive,
N#CCCn1c(=O)c(-c2ccc(Cl)cc2)nc2cnc(N3CCNCC3)nc21,"inconclusive: 5.01 µM [fluorescent, side channel, partial curve]",
Cc1ccc(-n2c3c(cc(C(=O)NCc4ccco4)c2=O)C(=O)CC(C)(C)C3)cc1,inactive,
O=C(CN1C(=O)c2cccc3cccc1c23)Nc1ccccc1C(=O)NCc1ccco1,"inconclusive: 25.1 µM [fluorescent, side channel, single point]",
CCOC(=O)c1cc2ccc(OC(=O)c3ccco3)cc2oc1=O,"inconclusive: 3.98 µM [fluorescent, side channel, partial curve]",
CCC(=O)N1CCc2cc(OC)c(OC)cc2C1COc1ccc(C(=O)OC)cc1 (stereo not given),inactive,
Oc1c(Cl)cc(Cl)c(Cl)c1Cc1c(O)c(Cl)cc(Cl)c1Cl,"inconclusive: 31.6 µM [inhibitor, partial curve]",
CCCC1C(c2ccco2)NC(c2ccco2)CC1(C)O (stereo not given),inactive,
COc1ccc(C)cc1-n1nnnc1SCc1cn2ccsc2n1,inactive,
O=c1c2ccccc2c(/C=N/n2cnnc2)c(O)n1-c1ccccc1,"inconclusive: 31.6 µM [fluorescent, partial curve]",

SMILES,Potency,"activity change, negative = inhibition"
CCc1cccc2nc3c(c([Si](C)(C)C)c12)Cn1c-3cccc1=O,"inconclusive: 25.1 µM [fluorescent, partial curve]",
CCOC(=O)c1c(NC(=O)c2cccs2)sc(C)c1CC,"inconclusive: 25.1 µM [inhibitor, single point]",
CCN1C(=O)c2cccc3c(NC(=O)c4ccc(S(=O)(=O)N(C)C)cc4)ccc1c23,"inconclusive: 31.6 µM [inhibitor, single point]",
O=C(Nc1ccc2c(c1)OCO2)C1(S(=O)(=O)c2ccc(Cl)cc2)CC1,inactive,
COc1ccc2[nH]c(=O)c(CN(Cc3nnnn3Cc3ccco3)C3CCCCC3)cc2c1,"inconclusive: 15.8 µM [fluorescent, partial curve]",
CCOC(=O)c1cc2c(=O)n3cccc(C)c3nc2n(CC2CCCO2)c1=NC(C)=O (stereo not given),"inconclusive: 2 µM [fluorescent, full curve]",
COc1cc(NC(=O)c2ccco2)c(OC)cc1NC(=O)c1cc(OC)c(OC)c(OC)c1,"inconclusive: 31.6 µM [inhibitor, single point]",
COC(=O)c1cc(-c2ccc(OC)c(OC)c2)on1,inactive,
COCCn1c(=O)c(-c2ccc(Cl)cc2)nc2cnc(OCc3ccccc3)nc21,"inconclusive: 31.6 µM [fluorescent, single point]",
CSc1ncnc2c1ncn2C1OC(CO)C(O)C1O (stereo not given),inactive,
Cc1sc2nc3ccc(N4CCCCC4)nn3c(=O)c2c1C,"inconclusive: 25.1 µM [inhibitor, partial curve]",
COC(=O)[C@@]1(Cc2ccc(OC)cc2)[C@H]2c3cc(C(=O)N4CCCC4)n(C[C@H](O)CO)c3C[C@H]2CN1C(=O)c1ccccc1,inactive,
CCN1C(=O)[C@H]2[C@H]3[C@H](O)[C@H](O)C/C(=N/O[C@@H]4O[C@@H](COC(C)=O)[C@@H](OC(C)=O)[C@@H](OC(C)=O)[C@H]4OC(C)=O)[C@@H]3CC[C@@H]2C1=O,,inactive: 0.957% [at 11.5 µM]
Cc1cccc(N2CCN(C(=O)c3cc4c(C)nc5ccccc5c4o3)CC2)c1C,inactive,
Cn1cccc1C(=O)N1CCC2(CC1)CCN(c1cccc(-c3ccccc3)c1)CC2,inactive,
COc1ccc2c(c1)Cc1sc(NC(=O)c3cccs3)nc1-2,"inconclusive: 25.1 µM [inhibitor, partial curve]",
Cc1ccc(S(=O)(=O)C(C#N)c2nc3ccccc3nc2N2CCCC2)cc1 (stereo not given),"inconclusive: 15.8 µM [inhibitor, partial curve]",
Nc1ccc2c(c1)C(=O)N(CC1CCCO1)C2=O (stereo not given),"inconclusive: 25.1 µM [fluorescent, partial curve]",
CCOC(=O)C1=CN(C)C=C(C(=O)OCC)C1c1ccsc1,"inconclusive: 12.6 µM [fluorescent, side channel, partial curve]",
COc1ccc2[nH]c(=O)c(CN(Cc3cccs3)Cc3nnnn3C(C)(C)C)cc2c1,inactive,
